# The other results are listed elsewhere or left out.
# B1: PX9937D-bvu-500-26-500 (Bacteroides vulgatus) (protein)
# chain: DPVSDITDLNYWKTPEQFDSFVFGLHSRFRSHSWNMFLLGEARSDVFGGIPFGGEATQGMERFPYNTLNAENPGISGFGDLYQNINQMNLFISRTLHTDVLTESARNYYLGQVYGLRAYYMYQLYRSWGDVVFTEEPSLGFEVGKLAKAATPAAEIFEQVKKDIESSLSYFGSDYTIKEKKSLWSKAATLMLKADVYLWSAHRDGGEGDARTAKNALVDIQNNISRSNLDLMDTYQGVFAYDNKGNKEIIFTIHNELFEYNLWNGNNDLFPQADYLGKFYNADGTLINTSVENNFGIMRLMVKLENFKKFLPGDTRRDVTLKDVYNKVENGKLELVGVYPHKYWGVMNGSTRVRCDDYPIYRYSDLLLMLAEAKVLLGEDPATEINRVRRRAFGDAYDASTVGFPNQEVDKRPADAVLQERLFEFMLEGKRWYDLRRFGDSYVLDYTPAEPARLLWPINQGALTNNPLLKQTVGY
# Assays:
# Experiment in all cases: glycan array binding signal (z-score within array); higher = stronger binding
# Details in all cases: glycan notation: IUPAC condensed, linker removed
# GlcNAc(b1-3)Man = biological target: GlcNAc(b1-3)Man
# In short: (§1)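 From the Consortium for Functional Glycomics database, 3228 arrays were curated, keeping only those whose protein sequence was available. Binding is given as a within-array Z-score averaged across arrays sharing a protein sequence and across linkers. Negative Z-scores can be read as non-binding.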
# [1] = biological target: GlcNAc(b1-3)[GlcNAc(b1-4)][GlcNAc(b1-6)]GlcNAc
# In short: as §1
# [2] = biological target: GlcNAc(b1-3)[GlcNAc(b1-6)]Gal(b1-4)GlcNAc
# In short: as §1
# [3] = biological target: GlcNAc(b1-3)[GlcNAc(b1-6)]GalNAc
# In short: as §1
# [4] = biological target: GlcNAc(b1-4)Gal(b1-4)GlcNAc
# In short: as §1
# GlcNAc(b1-4)GlcNAc = biological target: GlcNAc(b1-4)GlcNAc
# In short: as §1
# [5] = biological target: GlcNAc(b1-4)GlcNAc(b1-4)GlcNAc
# In short: as §1
# [6] = biological target: GlcNAc(b1-4)GlcNAc(b1-4)GlcNAc(b1-4)GlcNAc(b1-4)GlcNAc
# In short: as §1
# [7] = biological target: GlcNAc(b1-4)GlcNAc(b1-4)GlcNAc(b1-4)GlcNAc(b1-4)GlcNAc(b1-4)GlcNAc
# In short: as §1
# [8] = biological target: GlcNAc(b1-4)[GlcNAc(b1-6)]GalNAc
# In short: as §1
# [9] = biological target: GlcNAc(b1-6)Gal(b1-4)GlcNAc
# In short: as §1
# GlcNAc(b1-6)GalNAc = biological target: GlcNAc(b1-6)GalNAc
# In short: as §1
# [10] = biological target: GlcNAc6S(b1-3)Gal(b1-4)GlcNAc
# In short: as §1
# Kdn(a2-3)Gal(b1-3)GalNAc = biological target: Kdn(a2-3)Gal(b1-3)GalNAc
# In short: as §1
# Kdn(a2-3)Gal(b1-3)GlcNAc = biological target: Kdn(a2-3)Gal(b1-3)GlcNAc
# In short: as §1
# Kdn(a2-3)Gal(b1-4)Glc = biological target: Kdn(a2-3)Gal(b1-4)Glc
# In short: as §1
# Kdn(a2-3)Gal(b1-4)GlcNAc = biological target: Kdn(a2-3)Gal(b1-4)GlcNAc
# In short: as §1
# [11] = biological target: Kdn(a2-3)Gal(b1-4)[Fuc(a1-3)]GlcNAc
# In short: as §1
# Kdn(a2-6)Gal(b1-4)GlcNAc = biological target: Kdn(a2-6)Gal(b1-4)GlcNAc
# In short: as §1
# [12] = biological target: Man(a1-2)Man(a1-2)Man(a1-3)Man
# In short: as §1
# [13] = biological target: Man(a1-2)Man(a1-2)Man(a1-6)[Man(a1-3)]Man
# In short: as §1
# Man(a1-2)Man(a1-3)Man = biological target: Man(a1-2)Man(a1-3)Man
# In short: as §1
# [14] = biological target: Man(a1-2)Man(a1-3)[Man(a1-2)Man(a1-6)]Man
# In short: as §1
# [15] = biological target: Man(a1-2)Man(a1-3)[Man(a1-2)Man(a1-6)]Man(a1-6)[Man(a1-2)Man(a1-2)Man(a1-3)]Man
# In short: as §1
# [16] = biological target: Man(a1-2)Man(a1-3)[Man(a1-2)Man(a1-6)]Man(a1-6)[Man(a1-2)Man(a1-2)Man(a1-3)]Man(b1-4)GlcNAc(b1-4)GlcNAc
# In short: as §1
# [17] = biological target: Man(a1-2)Man(a1-3)[Man(a1-6)]Man(a1-6)[Man(a1-2)Man(a1-3)]Man(b1-4)GlcNAc(b1-4)GlcNAc
# In short: as §1
# [18] = biological target: Man(a1-2)Man(a1-6)[Man(a1-3)]Man(a1-6)[Man(a1-2)Man(a1-2)Man(a1-3)]Man
# In short: as §1
# [19] = biological target: Man(a1-2)Man(a1-6)[Man(a1-3)]Man(a1-6)[Man(a1-2)Man(a1-2)Man(a1-3)]Man(b1-4)GlcNAc(b1-4)GlcNAc
# In short: as §1
# Man(a1-3)[Man(a1-6)]Man = biological target: Man(a1-3)[Man(a1-6)]Man
# In short: as §1
# [20] = biological target: Man(a1-3)[Man(a1-6)]Man(a1-6)[Man(a1-2)Man(a1-3)]Man(b1-4)GlcNAc(b1-4)GlcNAc
# In short: as §1
# [21] = biological target: Man(a1-3)[Man(a1-6)]Man(a1-6)[Man(a1-3)]Man
# In short: as §1
# [22] = biological target: Man(a1-3)[Man(a1-6)]Man(a1-6)[Man(a1-3)]Man(b1-4)GlcNAc(b1-4)GlcNAc
# In short: as §1
# [23] = biological target: Man(a1-3)[Man(a1-6)]Man(b1-4)GlcNAc(b1-4)GlcNAc
# In short: as §1
# [24] = biological target: Man(a1-3)[Man(a1-6)]Man(b1-4)GlcNAc(b1-4)[Fuc(a1-6)]GlcNAc
# In short: as §1
# Man(a1-6)Man = biological target: Man(a1-6)Man
# In short: as §1
# Man(b1-4)GlcNAc = biological target: Man(b1-4)GlcNAc
# In short: as §1
# MurNAc(b1-4)GlcNAc = biological target: MurNAc(b1-4)GlcNAc
# In short: as §1
# Neu5Ac(a2-3)Gal = biological target: Neu5Ac(a2-3)Gal
# In short: as §1
binder,measurement,setting,value
B1,glycan array binding signal (z-score),GlcNAc(b1-3)Man,-0.094
same,glycan array binding signal (z-score),[1],-0.479
same,glycan array binding signal (z-score),[2],0.311
same,glycan array binding signal (z-score),[3],-0.506
same,glycan array binding signal (z-score),[4],-0.229
same,glycan array binding signal (z-score),GlcNAc(b1-4)GlcNAc,0.201
same,glycan array binding signal (z-score),[5],-0.41
same,glycan array binding signal (z-score),[6],-0.558
same,glycan array binding signal (z-score),[7],-0.379
same,glycan array binding signal (z-score),[8],-0.387
same,glycan array binding signal (z-score),[9],0.08
same,glycan array binding signal (z-score),GlcNAc(b1-6)GalNAc,0.455
same,glycan array binding signal (z-score),[10],-0.75
same,glycan array binding signal (z-score),Kdn(a2-3)Gal(b1-3)GalNAc,-0.333
same,glycan array binding signal (z-score),Kdn(a2-3)Gal(b1-3)GlcNAc,-0.12
same,glycan array binding signal (z-score),Kdn(a2-3)Gal(b1-4)Glc,-0.224
same,glycan array binding signal (z-score),Kdn(a2-3)Gal(b1-4)GlcNAc,-0.408
same,glycan array binding signal (z-score),[11],-0.237
same,glycan array binding signal (z-score),Kdn(a2-6)Gal(b1-4)GlcNAc,-0.492
same,glycan array binding signal (z-score),[12],-0.497
same,glycan array binding signal (z-score),[13],-0.576
same,glycan array binding signal (z-score),Man(a1-2)Man(a1-3)Man,-0.696
same,glycan array binding signal (z-score),[14],-0.532
same,glycan array binding signal (z-score),[15],-0.398
same,glycan array binding signal (z-score),[16],-0.504
same,glycan array binding signal (z-score),[17],-0.359
same,glycan array binding signal (z-score),[18],-0.503
same,glycan array binding signal (z-score),[19],-0.167
same,glycan array binding signal (z-score),Man(a1-3)[Man(a1-6)]Man,-0.391
same,glycan array binding signal (z-score),[20],0.269
same,glycan array binding signal (z-score),[21],0.317
same,glycan array binding signal (z-score),[22],-0.09
same,glycan array binding signal (z-score),[23],-0.209
same,glycan array binding signal (z-score),[24],-0.415
same,glycan array binding signal (z-score),Man(a1-6)Man,-0.097
same,glycan array binding signal (z-score),Man(b1-4)GlcNAc,-0.517
same,glycan array binding signal (z-score),MurNAc(b1-4)GlcNAc,-0.509
same,glycan array binding signal (z-score),Neu5Ac(a2-3)Gal,-0.084

# From the supplement of paper PMC8728848
